Test results from PMC12521208.
Results are given in words; binding and its absence hold for the method and conditions named. Binding seen in cells or lysates may run through a third protein. Some binding calls cover weakened binding; strength is not graded here.

Amino acid sequences for entries named in this document (tags omitted). A change or cut given only in a name is not applied to a line headed by its entry. Chains listed by the source or under a name are the forms on record and can include a tag or linker. Residues count along the entry.
UniProt Q99836: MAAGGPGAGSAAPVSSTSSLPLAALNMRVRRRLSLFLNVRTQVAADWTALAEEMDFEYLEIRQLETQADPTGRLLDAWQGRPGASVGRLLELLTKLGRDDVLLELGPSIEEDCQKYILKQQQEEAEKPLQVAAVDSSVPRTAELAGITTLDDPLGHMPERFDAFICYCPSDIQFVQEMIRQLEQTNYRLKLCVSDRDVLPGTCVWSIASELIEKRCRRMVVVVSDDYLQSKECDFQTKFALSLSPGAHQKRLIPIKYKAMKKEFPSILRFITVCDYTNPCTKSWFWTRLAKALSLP
human TLR4 WT-HA (O00206, residues 24-839): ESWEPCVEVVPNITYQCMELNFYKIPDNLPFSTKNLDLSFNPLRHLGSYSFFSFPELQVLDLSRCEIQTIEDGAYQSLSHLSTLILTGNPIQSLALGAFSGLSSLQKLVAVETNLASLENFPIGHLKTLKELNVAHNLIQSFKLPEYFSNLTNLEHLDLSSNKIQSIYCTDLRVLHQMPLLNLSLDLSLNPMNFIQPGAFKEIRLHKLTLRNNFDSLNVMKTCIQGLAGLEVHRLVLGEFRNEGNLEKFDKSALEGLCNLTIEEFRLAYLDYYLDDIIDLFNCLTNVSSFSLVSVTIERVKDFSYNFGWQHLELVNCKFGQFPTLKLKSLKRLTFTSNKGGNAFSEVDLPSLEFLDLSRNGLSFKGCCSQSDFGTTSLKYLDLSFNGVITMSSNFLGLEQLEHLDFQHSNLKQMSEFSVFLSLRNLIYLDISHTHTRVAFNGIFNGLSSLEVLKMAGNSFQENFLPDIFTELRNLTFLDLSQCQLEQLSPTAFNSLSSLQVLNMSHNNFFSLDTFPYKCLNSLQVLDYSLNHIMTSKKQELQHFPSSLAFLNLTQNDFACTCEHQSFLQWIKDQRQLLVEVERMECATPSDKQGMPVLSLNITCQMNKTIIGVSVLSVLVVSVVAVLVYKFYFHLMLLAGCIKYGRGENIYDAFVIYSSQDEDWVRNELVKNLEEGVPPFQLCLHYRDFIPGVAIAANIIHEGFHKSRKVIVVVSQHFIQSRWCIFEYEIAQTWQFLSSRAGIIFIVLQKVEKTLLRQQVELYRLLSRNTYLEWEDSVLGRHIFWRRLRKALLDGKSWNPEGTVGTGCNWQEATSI
human TLR4 p.(Arg763Cys)-HA (O00206, form named): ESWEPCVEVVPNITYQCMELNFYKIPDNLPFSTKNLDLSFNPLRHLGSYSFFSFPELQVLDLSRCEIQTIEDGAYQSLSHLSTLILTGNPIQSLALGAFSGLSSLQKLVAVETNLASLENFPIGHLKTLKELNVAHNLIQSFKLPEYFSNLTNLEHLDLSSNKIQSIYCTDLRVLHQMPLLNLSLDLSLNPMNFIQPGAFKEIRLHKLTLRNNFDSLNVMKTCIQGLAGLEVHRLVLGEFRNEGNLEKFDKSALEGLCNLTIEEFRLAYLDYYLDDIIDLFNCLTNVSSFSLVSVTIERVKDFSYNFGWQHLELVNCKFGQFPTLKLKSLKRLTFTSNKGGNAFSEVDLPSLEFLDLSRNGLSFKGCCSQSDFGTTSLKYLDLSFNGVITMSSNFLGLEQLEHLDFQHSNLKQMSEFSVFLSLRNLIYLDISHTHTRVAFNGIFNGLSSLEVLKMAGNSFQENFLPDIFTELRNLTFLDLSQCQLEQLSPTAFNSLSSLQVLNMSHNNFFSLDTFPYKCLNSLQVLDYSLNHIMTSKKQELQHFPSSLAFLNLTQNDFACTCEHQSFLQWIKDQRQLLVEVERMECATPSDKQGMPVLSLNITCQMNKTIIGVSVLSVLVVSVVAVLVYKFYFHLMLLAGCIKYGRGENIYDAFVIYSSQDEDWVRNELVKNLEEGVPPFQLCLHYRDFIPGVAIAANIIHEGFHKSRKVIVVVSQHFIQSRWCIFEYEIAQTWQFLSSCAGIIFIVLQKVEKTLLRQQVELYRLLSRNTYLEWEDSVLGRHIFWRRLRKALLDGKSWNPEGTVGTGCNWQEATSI
human TLR4 p.(Arg804Trp)-HA (O00206, form named): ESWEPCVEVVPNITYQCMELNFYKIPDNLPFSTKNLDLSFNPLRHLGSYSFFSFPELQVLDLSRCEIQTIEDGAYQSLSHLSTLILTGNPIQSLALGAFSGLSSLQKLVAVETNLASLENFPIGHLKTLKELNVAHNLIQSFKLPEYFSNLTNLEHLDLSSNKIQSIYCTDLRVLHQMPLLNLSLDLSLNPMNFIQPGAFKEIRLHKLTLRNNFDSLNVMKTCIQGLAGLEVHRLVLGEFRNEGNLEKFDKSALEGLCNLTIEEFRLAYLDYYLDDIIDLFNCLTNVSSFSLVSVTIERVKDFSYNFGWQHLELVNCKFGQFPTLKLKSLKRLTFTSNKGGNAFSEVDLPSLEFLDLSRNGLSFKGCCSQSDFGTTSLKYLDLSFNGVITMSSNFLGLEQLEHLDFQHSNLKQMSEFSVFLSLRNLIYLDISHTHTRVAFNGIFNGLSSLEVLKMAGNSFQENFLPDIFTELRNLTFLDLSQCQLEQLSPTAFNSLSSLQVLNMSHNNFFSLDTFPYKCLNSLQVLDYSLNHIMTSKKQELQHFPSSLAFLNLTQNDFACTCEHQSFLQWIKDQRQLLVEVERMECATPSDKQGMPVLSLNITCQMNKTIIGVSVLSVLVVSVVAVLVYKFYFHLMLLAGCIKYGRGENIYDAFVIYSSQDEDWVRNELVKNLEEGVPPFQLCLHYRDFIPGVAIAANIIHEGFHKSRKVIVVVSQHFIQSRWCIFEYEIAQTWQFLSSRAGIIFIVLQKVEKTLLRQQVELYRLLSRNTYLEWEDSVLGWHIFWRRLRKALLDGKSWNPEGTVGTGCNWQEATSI
human TLR4 p.(Gly715Ser)-HA (O00206, form named): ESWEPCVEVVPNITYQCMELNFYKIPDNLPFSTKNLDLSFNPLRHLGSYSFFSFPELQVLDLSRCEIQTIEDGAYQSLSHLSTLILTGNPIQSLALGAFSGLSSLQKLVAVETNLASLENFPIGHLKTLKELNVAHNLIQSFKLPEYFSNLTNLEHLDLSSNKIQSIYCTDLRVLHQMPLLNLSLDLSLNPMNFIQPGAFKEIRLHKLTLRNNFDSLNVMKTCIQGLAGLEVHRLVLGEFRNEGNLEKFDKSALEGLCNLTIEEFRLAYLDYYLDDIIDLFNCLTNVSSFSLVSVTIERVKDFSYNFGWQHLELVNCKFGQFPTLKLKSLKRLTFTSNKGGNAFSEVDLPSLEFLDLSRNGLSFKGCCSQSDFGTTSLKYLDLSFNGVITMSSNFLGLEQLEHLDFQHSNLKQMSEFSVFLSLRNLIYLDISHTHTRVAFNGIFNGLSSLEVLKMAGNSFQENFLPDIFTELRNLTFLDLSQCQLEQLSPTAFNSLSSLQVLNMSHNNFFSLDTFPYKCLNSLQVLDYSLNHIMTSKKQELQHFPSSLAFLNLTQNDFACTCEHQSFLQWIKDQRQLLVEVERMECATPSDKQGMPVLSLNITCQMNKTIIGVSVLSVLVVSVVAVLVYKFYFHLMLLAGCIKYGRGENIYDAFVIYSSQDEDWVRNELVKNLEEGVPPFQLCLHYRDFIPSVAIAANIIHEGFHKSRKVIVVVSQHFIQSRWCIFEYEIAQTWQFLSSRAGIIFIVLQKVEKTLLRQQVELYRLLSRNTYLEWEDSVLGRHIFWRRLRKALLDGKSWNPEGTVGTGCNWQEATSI
human TLR4 p.(Phe749Leu)-HA (O00206, form named): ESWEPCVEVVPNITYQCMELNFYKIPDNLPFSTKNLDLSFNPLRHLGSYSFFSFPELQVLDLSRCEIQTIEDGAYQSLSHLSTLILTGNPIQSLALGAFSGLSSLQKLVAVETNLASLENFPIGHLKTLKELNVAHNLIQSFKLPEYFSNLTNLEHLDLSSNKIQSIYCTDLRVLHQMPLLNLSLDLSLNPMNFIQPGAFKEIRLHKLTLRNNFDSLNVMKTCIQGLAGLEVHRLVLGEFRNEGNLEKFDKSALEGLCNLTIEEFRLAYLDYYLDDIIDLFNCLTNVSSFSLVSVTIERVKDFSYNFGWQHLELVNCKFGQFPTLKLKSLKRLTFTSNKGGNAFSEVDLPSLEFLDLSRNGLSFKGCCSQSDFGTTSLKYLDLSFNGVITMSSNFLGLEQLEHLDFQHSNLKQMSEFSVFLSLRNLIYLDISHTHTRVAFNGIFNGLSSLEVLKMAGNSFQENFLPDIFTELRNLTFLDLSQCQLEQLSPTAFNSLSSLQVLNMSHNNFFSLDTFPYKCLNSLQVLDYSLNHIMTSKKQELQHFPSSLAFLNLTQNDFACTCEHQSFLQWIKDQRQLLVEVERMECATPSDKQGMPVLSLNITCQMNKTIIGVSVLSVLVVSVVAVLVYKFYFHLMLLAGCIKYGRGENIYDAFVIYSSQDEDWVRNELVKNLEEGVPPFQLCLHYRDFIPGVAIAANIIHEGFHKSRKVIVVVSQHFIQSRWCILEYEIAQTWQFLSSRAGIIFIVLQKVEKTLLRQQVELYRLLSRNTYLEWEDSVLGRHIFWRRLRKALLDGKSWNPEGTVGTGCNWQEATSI
human TLR4 p.(Pro823Thr)-HA (O00206, form named): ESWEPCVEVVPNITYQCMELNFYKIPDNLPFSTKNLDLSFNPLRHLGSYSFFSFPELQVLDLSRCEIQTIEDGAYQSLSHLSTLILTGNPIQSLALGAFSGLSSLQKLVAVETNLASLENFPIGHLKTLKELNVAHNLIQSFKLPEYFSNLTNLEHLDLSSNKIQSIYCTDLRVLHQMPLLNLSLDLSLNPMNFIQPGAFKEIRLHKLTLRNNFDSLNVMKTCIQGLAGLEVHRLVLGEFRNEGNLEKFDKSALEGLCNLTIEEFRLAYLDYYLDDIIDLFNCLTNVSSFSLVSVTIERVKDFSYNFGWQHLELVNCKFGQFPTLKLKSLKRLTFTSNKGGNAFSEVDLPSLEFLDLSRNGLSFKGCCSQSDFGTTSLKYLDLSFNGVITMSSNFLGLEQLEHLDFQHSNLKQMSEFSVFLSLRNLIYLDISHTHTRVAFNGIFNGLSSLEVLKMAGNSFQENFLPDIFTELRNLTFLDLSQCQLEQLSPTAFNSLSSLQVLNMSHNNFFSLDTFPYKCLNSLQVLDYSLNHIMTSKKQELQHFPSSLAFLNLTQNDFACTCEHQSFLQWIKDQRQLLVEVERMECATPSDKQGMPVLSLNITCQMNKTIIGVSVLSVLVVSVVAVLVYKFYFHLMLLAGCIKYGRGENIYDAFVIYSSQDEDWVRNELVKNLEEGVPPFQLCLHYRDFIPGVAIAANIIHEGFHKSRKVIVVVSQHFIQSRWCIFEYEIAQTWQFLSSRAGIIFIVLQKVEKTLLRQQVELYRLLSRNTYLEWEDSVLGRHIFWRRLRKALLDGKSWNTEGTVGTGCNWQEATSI

Target: human Myd88-Flag (human) (UniProt Q99836)
Assay: co-IP; HEK293T co-transfected with 8 µg TLR4 WT-HA or variant-HA and 8 µg Myd88-Flag; lysis in 50 mM Tris pH 7.4, 150 mM NaCl, 1% Triton X-100, 0.5% sodium deoxycholate, 0.1% SDS; overnight with HA-Trap or DYKDDDDK(flag)-Trap magnetic beads; blot with anti-HA or anti-Flag

Question: How did the binding turn out when “human TLR4 WT-HA (from UniProt O00206 24-839) (receptor)” was run?
Answer: Its binding is “binds”.

Question: For “human TLR4 p.(Arg763Cys)-HA (from UniProt O00206 24-839) (receptor)”, which binding is on record?
Answer: The binding was “no binding”.

Question: Which binding does the source give for “human TLR4 p.(Arg804Trp)-HA (from UniProt O00206 24-839) (receptor)” here?
Answer: The binding was “no binding”.

Question: How did the binding turn out when “human TLR4 p.(Gly715Ser)-HA (from UniProt O00206 24-839) (receptor)” was run?
Answer: The binding was “no binding”.

Question: With “human TLR4 p.(Phe749Leu)-HA (from UniProt O00206 24-839) (receptor)” as the substance, how does the binding read?
Answer: Its binding is “binds”.

Question: With “human TLR4 p.(Pro823Thr)-HA (from UniProt O00206 24-839) (receptor)” as the substance, how does the binding read?
Answer: The binding was “binds”.
